# In PubChem BioAssay AID485313 (National Center for Advancing Translational Sciences (NCATS), 2010):
# Screen size: about 320,000 compounds; about 7,600 (2.4%) were called active. The shares of active, inactive and inconclusive entries below differ from those in the screen. The call rests on the fitted dose curve; in most records, active means well fitted activation curve with a large enough effect; inconclusive means small, poorly fitted or top-dose-only effect; inactive means no such curve, though single readings can be large or run the other way. No potency is given beside an inconclusive call; the fits are too rough.
# Experiment: qHTS Assay for NPC1 Promoter Activators; further: nearly all actives have a fitted effect of over 60% in size; on activation: % of control where 0% means no effect
# Conditions: Huh7 NPC1 promoter luciferase reporter, 24 h; series mostly up to 9.22 µM; activation: at the top concentration
# Method in brief: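 Luciferase expression driven by the NPC1 promoter was measured in stably transfected Huh7 cells after a 24 h compound incubation, using a luciferase reagent and a luminescence read.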
# Potency means the concentration at half of the fitted maximal effect; tags describe the fitted curve by direction and shape.
SMILES,Potency,activation
Cc1ccc(C(=O)N=c2sccn2C)cc1S(=O)(=O)N1CCOCC1,active: 3.98 µM,
Cc1ccc(Cn2c(/C=C/c3ccco3)nc3ccccc32)cc1,"inconclusive [activator, single point]",
CC(C)c1ccc(Nc2cnn(C34CC5CC(CC(CC(=O)O)(C5)C3)C4)c(=O)c2Cl)cc1,"inconclusive [activator, single point]",
CC(C)(C)c1ccc(OC2=CS(=O)(=O)c3ccccc32)cc1,"inconclusive [activator, partial curve]",
COc1ccc(-c2cc(C(=O)Nc3cccc(O)c3)no2)cc1,"inconclusive [activator, single point]",
O=c1cc(/C=C/c2ccccc2)oc2ccccc12,"inconclusive [activator, single point]",
COc1ccc(NC(=O)Nc2cc(C)ccc2F)cc1,active: 3.55 µM,
COc1ccc(-c2csc(NNC3=NCCCCC3)n2)cc1,,inactive: -0.279%
Cc1cc(C(=O)CSc2nc3ccccc3[nH]2)c(C)n1C,active: 0.398 µM,
CSc1nc(N)nc(SCC(=O)c2ccc(C)cc2)c1C#N,"inconclusive [activator, single point]",
CCc1nc(CN2CCN(c3cc(C(F)(F)F)ccn3)CC2)c(C)[nH]1,,inactive: -7.29%
Cc1ccccc1Cn1ccc(=NCc2ccccc2)cc1,,inactive: -16%
O=C(CCCc1ccccc1)Nc1ccccc1[N+](=O)[O-],"inconclusive [activator, single point]",
COc1ccccc1Nc1ncc(-c2cccs2)s1,"inconclusive [activator, single point]",
O=C(O)c1ccccc1C(=O)c1cccc2ccccc12,,inactive: -2.56%
COCC(C)N=C1NN=C(c2cc(C)n(Cc3ccccc3Cl)c2C)CS1 (stereo not given),"inconclusive [activator, partial curve]",
CC(=O)c1ccc(NC(=O)C2CC(=O)N(Cc3ccccc3)C2)cc1 (stereo not given),"inconclusive [activator, single point]",
COc1ccccc1/C=N/N(C(C)=O)c1nc(-c2ccc(F)cc2)cs1,"inconclusive [activator, single point]",
CCc1ccc([C@@H]2C[C@H]3CN(Cc4ccccc4OC)C(=O)[C@]34CCCN24)cc1,,inactive: -11.6%
Cc1ccc(/C=N/Nc2nnc(Cl)c3ccccc23)cc1,"inconclusive [activator, single point]",
O=c1oc2ccccc2cc1-c1csc(NN=C2CCCCC2)n1,"inconclusive [activator, partial curve]",
COc1cc(SC)ccc1C(=O)NCCOc1ccc(F)cc1,"inconclusive [activator, partial curve]",
Cc1cc(C(=O)COC(=O)c2ccccc2O)c(C)n1Cc1cccs1,,inactive: -23%
CC(=O)c1cc(NC(=O)c2ccccc2)c(=O)oc1C,,inactive: 1.17%
O=C(CCCl)N1CCN(c2nc(-c3ccccc3)cs2)CC1,"inconclusive [activator, partial curve]",
COc1ccc(CN=C2Nc3ccccc3CS2)cc1,active: 1 µM,
Cc1ccc(OCn2c(=O)sc3ccccc32)cc1,"inconclusive [activator, partial curve]",

SMILES,Potency,activation
Clc1ccc(CONc2ncnc3nonc23)c(Cl)c1,"inconclusive [activator, partial curve]",
CC1=CC2=NC(=O)/C(=C\c3cccn3CCOc3ccc(C)c(C)c3)C(=N)N2O1,,inactive: 14%
CC(C)(C)NC(=O)CCCSc1nc2ccccc2s1,"inconclusive [activator, partial curve]",
Cc1ccc(-n2c(SCC(N)=O)nnc2-c2ccc(S(=O)(=O)N3CCCCC3)cc2)c(C)c1,,inactive: -1.25%
O=C(NC(=S)NCc1ccc(-c2nc3ccccc3s2)cc1)c1ccco1,active: 3.16 µM,
CSc1ccc(-c2nnn(Cc3ccccn3)n2)cc1,active: 3.98 µM,
CCn1c(=NC(=O)c2ccc(S(=O)(=O)N(C)C)cc2)sc2cccc(OC)c21,,inactive: -12.4%
Nc1ccc2nc3c(=O)n(C4CCCCC4)c(=O)[nH]c3nc2c1,"inconclusive [activator, partial curve]",
Cc1cc2[nH]c(=O)cc(-c3ccccc3)n2n1,"inconclusive [activator, partial curve]",
O=C(CSc1n[nH]c(-c2ccco2)n1)Nc1ccccc1F,,inactive: -1.79%
Cc1ccc(Nc2nc(-c3cccnc3)cs2)cc1C,"inconclusive [activator, single point]",
Cc1cc(C(=O)NNC(=O)c2sccc2C)c(C)o1,"inconclusive [activator, partial curve]",
CC(=O)Nc1ccc(N=Cc2c(O)c(C(=O)Nc3ccccc3)cc3ccccc23)cc1,,inactive: 12.5%
CN(C)c1ccc(/C=C2\C(=N)N3N=C(CC(=O)N4CCCCC4)SC3=NC2=O)cc1,,inactive: 2.96%
C/C(=N\NC(=O)c1ccc(CSc2nncn2C)cc1)c1ccc(Cl)cc1,,inactive: 0.227%
C(=C\c1ccccc1)/C=N/N1CCN(c2ccccn2)CC1,"inconclusive [activator, partial curve]",
Cn1c(SCC(=O)Nc2cccc(F)c2)nc2c(c1=O)SCC2,,inactive: -3.87%
O=C(c1ccc(CSc2nc3ccncc3[nH]2)cc1)N1CCCCCC1,"inconclusive [activator, partial curve]",
CCOCCn1c(N2CCN(c3ccc(OC)cc3)CC2)nc2c1c(=O)n(C)c(=O)n2C,,inactive: 1.27%
Cc1ccc(NC(=O)C(=O)N2CCCC2)cc1Cl,active: 3.16 µM,
COc1ccc(C(=O)C2CCCN(Cc3ccc4nonc4c3)C2)c(OC)c1 (stereo not given),,inactive: -7.55%
CCn1c(C)nc2cc(C(=O)NNC(=O)Nc3ccc(Cl)cc3)ccc21,"inconclusive [activator, full curve]",
CN1Cc2sccc2C(c2ccc(O)c(O)c2)C1 (stereo not given),"inconclusive [activator, partial curve]",
O=C(Nc1nc2ccc(F)cc2s1)c1ccccn1,"inconclusive [activator, full curve]",
S=C(Nc1ccccc1)Nc1nc2ccccc2n1CCOc1ccc(Br)cc1,,inactive: -0.36%
Cc1ccc(OCC(=O)O/N=C(\N)c2ccccn2)cc1C,active: 2.24 µM,
COc1ccc(-c2cn3cc(C)ccc3n2)cc1F,active: 0.355 µM,

SMILES,Potency,activation
CC1CCN(S(=O)(=O)c2ccc(C(=O)Nc3ccccn3)cc2)CC1,"inconclusive [activator, partial curve]",
CC(C)NC(=O)c1ccc2c(c1)N(CC(=O)N1CCCCC1)C(=O)C(C)(C)O2,,inactive: 0.171%
CC(=O)Nc1cccc(C(=O)OCC(=O)N2CCC(c3ccccc3)=N2)c1,"inconclusive [activator, partial curve]",
C/[N+]([O-])=C\C1C(=O)CCCC1=O,,inactive: -6.82%
Cc1cc(-c2nnc(-c3cc4ccccc4oc3=O)o2)c(C)n1-c1ccccc1,,inactive: 24%
CCOC(=O)c1cn2nc(SCc3ccccc3)nc2nc1C,"inconclusive [activator, single point]",
CC(=O)Nc1nc(-c2cccs2)cs1,"inconclusive [activator, partial curve]",
CC(C)=CCN1CCN(Cc2ccc(C)s2)CC1CCO (stereo not given),,inactive: 0.282%
COc1ccc(OC)c(C=Nc2ccccc2-c2nc3ccccc3[nH]2)c1,"inconclusive [activator, single point]",
Cc1ccccc1C(=O)Nc1ccc(N2CCCCCC2)cc1,"inconclusive [activator, partial curve]",
Cc1cc(OCc2cc(C(=O)N(C)C(C)c3ccccn3)no2)cc(C)c1Cl (stereo not given),"inconclusive [activator, single point]",
COc1ccc(Cc2nc3ccc(C(=O)N(C)CCn4ccnc4)cc3o2)cc1OC,"inconclusive [activator, single point]",
COc1cccc(-c2nc(-c3ccccn3)no2)c1,"inconclusive [activator, single point]",
O=C(Nc1ccc(N2CCOCC2)cc1)c1ccc([N+](=O)[O-])o1,active: 1.41 µM,
NC(=O)C1CCN(Cc2ccc(OCc3ccccc3)cc2)CC1,active: 2.51 µM,
COc1cccc(C(=O)Nc2nnc(C3CCCO3)s2)c1 (stereo not given),active: 2.82 µM,
COc1ccc(CNc2nc(NCc3ccc(OC)c(OC)c3)n(C(=O)c3cccs3)n2)cc1OC,,inactive: -3.43%
CCOC(=O)c1c(C)[nH]c(C(=O)NCc2ccccc2OC)c1C,"inconclusive [activator, single point]",
Nc1nonc1-c1noc(COc2ccccc2Cl)n1,active: 1.41 µM,
COc1ccccc1C(=O)Nc1nnc(SCC(=O)NC2CCCC2)s1,active: 0.631 µM,
O=C(CC(c1ccccc1)C1CCCCC1=O)c1ccco1 (stereo not given),"inconclusive [activator, single point]",
Cc1ccc(C(O)Cn2nc(C)cc2C)cc1 (stereo not given),,inactive: 0.22%
Cc1occc1C(=O)N=Nc1c(O)[nH]c2ccc(Br)cc12,"inconclusive [activator, single point]",
CCC(=O)C1CCCN(C(=O)CCc2nnc(C3(c4ccc(Cl)cc4)CCC3)o2)C1 (stereo not given),"inconclusive [activator, partial curve]",
O=C(Nc1ccc(OC(F)(F)F)cc1)c1[nH]ncc1[N+](=O)[O-],,inactive: 12.8%
COc1ccc(C(=O)N/N=C(/C)c2cccc(NC(=O)c3ccccc3F)c2)cc1,"inconclusive [activator, single point]",
